For experiment [1], the target named is T1, human CD47 on the cell surface (CEM, Raji and other human tumor cells, human RBCs) (human, UniProt Q08722). Kind of experiment: cell-based or functional assay.
Experiment [2] deals with T2, hCD47-ECD/Fc protein (Sinobiological) (human, UniProt Q08722 part only, biotinylated in the Octet assay, sites not stated).
T2 construct: extracellular domain; Bought protein; also called human CD47-Fc antigen; recombinant hCD47-ECD/Fc; not shown: Fc part of the bought fusion protein
Put plainly: ELISA, coated hCD47-ECD/Fc.

Experiment [3] has as its target T3, cynoCD47-ECD/His protein (Sinobiological) (cynomolgus monkey, UniProt A0A2K5X4H8 19-141).
T3 construct: Bought protein; also called cynomolgus monkey CD47; Monkey CD47
T3 sequence (A0A2K5X4H8 entry or part of it limits assumed): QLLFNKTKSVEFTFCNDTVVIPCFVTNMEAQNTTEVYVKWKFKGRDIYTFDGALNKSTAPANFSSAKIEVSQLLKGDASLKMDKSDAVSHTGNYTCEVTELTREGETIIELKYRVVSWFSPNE
Kind of experiment: ELISA, coated cynoCD47-ECD/His.

The target in experiment [4] is T1, human CD47 on the cell surface (CEM, …). Put plainly: flow cytometry, CEM cells, batch 1.
The target is the same in experiment [5]. Put plainly: flow cytometry, CEM cells, batch 2.
The target of experiment [6] is T2, hCD47-ECD/Fc protein (Sinobiological). Kind of experiment: ELISA, coated hCD47-ECD/Fc, batch 1.
Experiment [7] has the same target. Put plainly: ELISA, coated hCD47-ECD/Fc, batch 2.
The target is the same in experiment [8]. Kind of experiment: ELISA, coated hCD47-ECD/Fc, batch 3.
For experiment [9], the target named is T1, human CD47 on the cell surface (CEM, …). Kind of experiment: flow cytometry, Raji cells, batch 1.
For experiment [10] the target is unchanged. Kind of experiment: flow cytometry, Raji cells, batch 2.
For experiment [11] the target is unchanged. Kind of experiment: flow cytometry, Raji cells, batch 3.
Experiment [12] has the same target. Put plainly: flow cytometry, human RBCs, batch 1.
Experiment [13] has the same target. Kind of experiment: flow cytometry, human RBCs, batch 2.
The target of experiment [14] is T2, hCD47-ECD/Fc protein (Sinobiological). Put plainly: BLI (Octet RED96), biotin-hCD47-ECD/Fc on SA sensors, 1:1 model.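 Further: test antibodies as analytes, 300 s association then 300 s dissociation in running buffer, with benchmark reference antibodies run as controls.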
Experiment [15] has the same target. Kind of experiment: competition ELISA vs biotin-hSIRPα-ECD/His on coated hCD47-ECD/Fc, experiment 2.
The target of experiment [16] is T4, mCD47-ECD/His protein (Sinobiological) (mouse, UniProt Q61735 19-140, limits assumed).
T4 construct: extracellular domain; Bought protein; also called mouse CD47; not shown: His tag
T4 sequence (looked up): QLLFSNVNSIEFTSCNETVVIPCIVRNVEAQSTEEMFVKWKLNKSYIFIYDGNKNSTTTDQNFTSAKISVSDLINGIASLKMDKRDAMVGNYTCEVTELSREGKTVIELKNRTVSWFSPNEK
Put plainly: ELISA, coated mCD47-ECD/His.

Experiment [17] concerns the target T1, human CD47 on the cell surface (CEM, …). Put plainly: flow cytometry on CEM cells, EC50 ratio against parental TY21446; member found by dividing the values of the 21st table, batch 2.
Experiment [18] shares this target. Put plainly: flow cytometry on human RBCs, EC50 ratio against parental TY21446; member found by dividing the values of the 23rd table, batch 2.
Experiment [19] has the same target. Put plainly: flow cytometry on CEM cells, EC50 ratio against TY26294 after cleavage; member found by dividing the values of the 21st table, batch 2.

Experimental findings from US20240417463A1 (ADAGENE PTE, published 2024) are described below.

B1: TY21446 (antibody, human IgG4 S228P, kappa)
heavy: EVQLVESGGGLVQPGGSLRLSCAASGFTFTNYAIHWVRQAPGKGLEWVSAISGSGSSTYYADSVKGRFTISRDNSKNTLYLQLNSLRAEDTAVYYCARRGSYGFGAFDYWGQGTLVTVSSASTKGPSVFPLAPCSRSTSESTAALGCLVKDYFPEPVTVSWNSGALTSGVHTFPAVLQSSGLYSLSSVVTVPSSSLGTKTYTCNVDHKPSNTKVDKRV[skipping human IgG4 Fc with S228P (EU numbers)]
light: DIQLTQSPSSLSASVGDRVTITCRASQTIGRYLNWYQQKPGKAPKLLIYDASNRATGIPSRFSGSGSGTDFTLTISSLQPEDFATYYCQQRYPWPYTFGQGTKVEIKRTVAAPSVFIFPPSDEQLKSGTASVVCLLNNFYPREAKVQWKVDNALQSGNSQESVTEQDSKDSTYSLSSTLTLSKADYEKHKVYACEVTHQGLSSPVTKSFNRGEC
notes: also called TY21446 parental antibody
In the case of B1, the “EC50 of macrophage phagocytosis of CEM cells, donor A” value in experiment [1] was determined as 0.9 nM. Moreover, in experiment [1], the “EC50 of macrophage phagocytosis of CEM cells, donor B” value came out at 0.54 nM. In addition, the “Max. Phagocytosis (%), donor A” value in [1] is 48%. Moreover, in experiment [1], the “Max. Phagocytosis (%), donor B” value was determined as 56.1%. Moreover, the EC50 turned out to be 0.41 nM in [2]; 0.46 nM in experiment [3]; 0.41 nM in experiment [4]; 0.51 nM in [5]; 0.23 nM in [6]; 0.35 nM in experiment [7]. Further, the 50% effective concentration (EC50) in [8] was 0.62 nM; in experiment [9] it was 0.48 nM; in [10] it was 0.48 nM; in experiment [11] it was 0.24 nM; in experiment [12], 0.37 nM; in [13] it was 0.55 nM. Besides, the “max MFI” value in experiment [5] turned out to be 301000 MFI; in experiment [11] it was 145000 MFI; in experiment [13], 18000 MFI. For the same molecule, the Kd in experiment [14] came to 0.194 nM. In experiment [14], this molecule yielded a koff of 0.000124 s⁻¹. In experiment [14], this molecule showed a kon of 642000 M⁻¹ s⁻¹. Moreover, in experiment [15], the half-maximal inhibitory concentration (IC50) is 2.86 nM.

B2: TY26294 (antibody, human IgG4 S228P, kappa)
heavy: EVQLVESGGGLVQPGGSLRLSCAASGFTFTNYAIHWVRQAPGKGLEWVSAISGSGSSTYYADSVKGRFTISRDNSKNTLYLQLNSLRAEDTAVYYCARRGSYGFGAFDYWGQGTLVTVSSASTKGPSVFPLAPCSRSTSESTAALGCLVKDYFPEPVTVSWNSGALTSGVHTFPAVLQSSGLYSLSSVVTVPSSSLGTKTYTCNVDHKPSNTKVDKRV[skipping human IgG4 Fc with S228P (EU numbers)]
light: EVGSYLTVDYFCDIDPLYCNAGGGPLGLAGSGGSDIQLTQSPSSLSASVGDRVTITCRASQTIGRYLNWYQQKPGKAPKLLIYDASNRATGIPSRFSGSGSGTDFTLTISSLQPEDFATYYCQQRYPWPYTFGQGTKVEIKRTVAAPSVFIFPPSDEQLKSGTASVVCLLNNFYPREAKVQWKVDNALQSGNSQESVTEQDSKDSTYSLSSTLTLSKADYEKHKVYACEVTHQGLSSPVTKSFNRGEC
With B2, in experiment [1], the “Max. Phagocytosis (%), donor A” value was 15.2%. For the same molecule, in experiment [1], the “Max. Phagocytosis (%), donor B” value was 5.2%. Also, the binding result in [16] is reported as “no binding”. Also, the EC50 in experiment [4] was determined as 520 nM; in experiment [5] it was 71.2 nM; in experiment [6] it was 160 nM; in [7] it was 186 nM; in experiment [8], 146 nM; in experiment [9], 272 nM. The EC50 in [10] is 335 nM; in experiment [11] it was 27.6 nM; in experiment [12] it was 482 nM; in [13], 1100 nM. The results for the “max MFI” value in [5], in [11] and in experiment [13] were 304000 MFI, 150000 MFI and 8260 MFI, respectively. In addition, the “masking efficiency (EC50 masked / EC50 parental)” value in [17] is 139 fold; in experiment [18], 2010 fold. Moreover, in [19], the “masking efficiency (EC50 uncleaved / EC50 cleaved)” value came out at 174 fold.
